Experimental data published in PubChem BioAssay AID485344 (National Center for Advancing Translational Sciences (NCATS), 2010).
About 6,900 (2%) of roughly 340,000 compounds were called active. Cut-off read from the data, not from the text of the source: active = inhibition above about 30%; inactive = below that, where a call was filed. Only a part is listed here, and it is no random draw. Entries without a call were filed so in the source.

What follows are compounds tested against D(2) dopamine receptor (Homo sapiens) (UniProt P14416) (assay: HTS Assay for Allosteric Antagonists of the Human D2 Dopamine Receptor: Primary Screen for Antagonists). Conditions: HEK293 TREx D2 cells, calcium flux, dopamine EC80; at 10 µM; stronger effect = higher value.
In short: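 Compounds are added to dye-loaded, induced HEK293 T-REx cells coupled to calcium release via D2; after a 3 min kinetic read an EC80 dopamine stimulus is given and fluorescence is recorded for 3 more min.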
Note: 0% is about no effect.

UniProt P14416, sequence (P14416 whole entry, looked up): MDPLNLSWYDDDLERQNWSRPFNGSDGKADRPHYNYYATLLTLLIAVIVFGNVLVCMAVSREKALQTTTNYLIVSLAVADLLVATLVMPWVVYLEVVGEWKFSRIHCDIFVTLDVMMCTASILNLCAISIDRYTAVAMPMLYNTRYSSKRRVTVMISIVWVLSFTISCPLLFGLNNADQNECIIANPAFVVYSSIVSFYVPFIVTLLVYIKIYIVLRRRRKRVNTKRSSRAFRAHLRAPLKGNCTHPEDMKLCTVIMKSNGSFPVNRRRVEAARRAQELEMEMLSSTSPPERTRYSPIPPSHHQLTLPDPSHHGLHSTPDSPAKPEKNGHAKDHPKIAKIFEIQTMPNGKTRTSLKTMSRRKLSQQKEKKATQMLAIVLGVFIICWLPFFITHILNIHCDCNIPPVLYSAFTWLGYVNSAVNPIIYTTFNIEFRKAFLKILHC

SMILES | inhibition
Cc1cccc(N2CCN(C(=O)c3ccc(Nc4nc5ccccc5n5nnnc45)cc3)CC2)c1C | -2.91%
CC1=C(C(=O)Nc2cc(Cl)ccc2C)C(c2cccs2)n2ncnc2N1 (stereo not drawn) | -21.7%
COc1ccccc1OCCC(=O)OCC(=O)Nc1ccc(Br)cc1 | active: 90.7%
CCC(C(=O)Nc1cc(F)ccc1F)n1nc(C)c2c(C)n(-c3ccc(C)cc3)nc2c1=O (stereo not drawn) | -4.27%
CCc1ccccc1NC(=O)c1noc2c1CC(C(C)(C)C)CC2 (stereo not drawn) | 2.01%
Cc1cccc(NC(=O)C(=O)NCCc2csc(-c3ccc(F)cc3)n2)c1C | 4.24%
Cc1cc(C)c2c(=O)cc(CSc3n[nH]c(C)n3)[nH]c2c1 | 9.88%
COc1ccc(CCC(=O)NC2CC(=O)N(c3ccc(OC)cc3)C2)cc1 (stereo not drawn) | 8.44%
Cc1cccc(OCC(=O)Nc2nnc(S(=O)(=O)N3CCc4ccccc43)s2)c1 | 15.8%
O=C(Nc1ccc(Cl)cc1)C(NS(=O)(=O)c1cccs1)c1ccccc1 (stereo not drawn) | 15.2%
COCc1nnc(NC(C)=O)s1 | active: 32.4%
CCOC(=O)C1CCCN(Cc2cn3c(-c4cccc(Br)c4)nnc3s2)C1 (stereo not drawn) | 8.09%
Cc1nc(-c2ccc(C)c(N3CCN(C(=O)Nc4cccc(Cl)c4C)CC3)c2)no1 | 8.64%
Cc1ccc(-n2c(Cc3ccccc3)nnc2SCc2nc(-c3cccs3)no2)cc1C | -5.21%
COc1cccc(N2CCN(Cc3ncc(-c4ccccc4)o3)CC2)c1 | active: 48.1%
COc1ccc(OC)c(NC(=O)Cn2c(=O)cc(-c3ccccc3)c3c(C)nn(C)c32)c1 | -5.15%
COc1cc(NC(=O)CCCOc2cc(=O)n(C)c3ccccc23)cc(OC)c1OC | -3.41%
CCOC(=O)CNC(=O)N1CCN(c2nnc(C)c3c(C)n(-c4ccc(Cl)cc4)nc23)CC1 | 5.05%
Cc1cccc(N2CCN(C(=O)CS(=O)(=O)Cc3nc(-c4ccccc4C)oc3C)CC2C)c1 (stereo not drawn) | -14.8%
CCOc1ccc(N(Cc2ccccc2)C(=O)c2nc(S(C)(=O)=O)ncc2Cl)cc1 | -6.36%
CCc1ccc(S(=O)(=O)c2nnn3c2nc(Nc2ccc(NC(C)=O)cc2)c2sccc23)cc1 | 3.19%
CC(=O)c1c(C)oc2c1cc(NS(=O)(=O)c1ccc(Cl)c(C)c1)c1ccccc12 | 4.82%
O=S(=O)(NCc1nc2cccnc2n1Cc1ccccc1Cl)c1ccc(F)c(Cl)c1 | -9.23%
CC1CCN(c2nc3ccc(C(=O)NCc4ccccc4)cc3s2)CC1 | -0.279%
COc1ccc(Cn2c(SCc3ccc(C(=O)NC(C)c4ccccc4)cc3)nc3cccnc32)cc1 (stereo not drawn) | -11.6%

SMILES | inhibition
COc1cc(NC(C)=O)c2ncccc2c1NC(C)=O | active: 36.7%
Cc1nnc(NC(=O)c2ccccc2)s1 | 6.22%
COc1ccc(CNC(=O)c2ccc3nc(-c4ccc(F)cc4)c(-c4ccc(F)cc4)nc3c2)cc1 | 16.5%
Cc1cc(NC(=O)CCNS(=O)(=O)c2cccc3nsnc23)ccc1Br | -4.39%
Cc1ccc(NC(=O)c2ccccc2Br)c(C(=O)c2ccccc2)c1 | 5.77%
Cc1cccc(-n2nc(C)c(C(=O)Nc3cc(C)ccc3C)c2-n2cccc2)c1 | -5.06%
Cc1ccc(C(=O)Nc2cc(Cl)ccc2N2CCCCC2)s1 | active: 32.2%
Cc1ccc(-n2c(SCc3ccccc3)nc3c([nH]c4ccccc43)c2=O)cc1 | -2.16%
COc1ccc(NC(=O)CC2NCCNC2=O)c(OC)c1 (stereo not drawn) | 19.7%
Cc1c(CC(=O)NCc2ccc(F)cc2)c(=O)oc2cc(O)c(Cl)cc12 | -14.2%
CCOC(=O)c1c(NC(=O)C2c3ccccc3Oc3ccccc32)sc(C)c1C | 6.5%
O=C(NCc1ccccc1Cl)c1ccc2oc(=O)n(Cc3ccccc3)c2c1 | -0.565%
Cc1cc(C)n(-c2nc3ccccc3nc2N2CCN(c3cccc(C(F)(F)F)c3)CC2)n1 | -6.56%
COc1cccc(CNC(=O)c2cc(S(=O)(=O)N3CCCCC3)c[nH]2)c1 | 5.42%
Cc1csc2nc(COC(=O)c3ccccc3NC(=O)c3ccc(C(C)(C)C)cc3)cc(=O)n12 | 3.11%
COc1ccc(-c2cc(C(F)(F)F)nc(NCCc3ccccc3)n2)cc1OC | -4.17%
COc1ccc2oc(=O)c(C(=O)N3CCN(c4ccc(C)cc4)CC3)cc2c1 | -4.28%
CCN(CC(=O)Nc1cc(Cl)ccc1C)C(=O)Cc1sc(C)nc1-c1ccc(F)cc1 | active: 75.5%
O=C(CCCn1c(=O)c2cccn2c2ccccc21)NCCc1ccc(Cl)cc1 | 0.713%
COc1ccc(-c2cc(C(=O)Nc3c(C)n(C)n(-c4ccccc4)c3=O)no2)cc1OC | -0.772%
CSc1nn(Cc2ccc(C)cc2)c(N)c1S(=O)(=O)c1ccccc1 | -6.35%
COC(=O)c1cc(-c2ccc(C)cc2)c2c(=O)n(C)c(=O)n(C)c2n1 | 5.82%
OCCN(CCO)c1ncnc2c1cnn2-c1ccc(F)cc1 | 13.9%
COc1ccccc1C(=O)Oc1ccc(C(c2c(C)[nH][nH]c2=O)c2c(C)[nH][nH]c2=O)cc1 | 23.8%
Cc1ccc(CNC(=O)c2ccc(NC(=O)N3CCSc4ncccc43)cc2)cc1 | 5.02%

SMILES | inhibition
CCc1ccc(-n2c(=O)c3c4c(sc3n(CC(=O)N3CCCCC3CC)c2=O)CCC4)cc1 (stereo not drawn) | 19.9%
O=C(CN1C(=O)c2cccnc2Oc2ccc(Cl)cc21)NC1CCCCCC1 | active: 41.1%
Cc1cccc(C)c1OCCCn1c(CCNC(=O)C2CCCCC2)nc2ccccc21 | -1.07%
Cc1ccc(NC(=O)Cn2c(=O)n(Cc3nc(C)no3)c(=O)c3ccccc32)c(Cl)c1 | 7.18%
CCC(=O)Nc1ccc(NC(=O)c2ccccc2)nc1 | active: 31.7%
CCOc1ccccc1NC(=O)c1nc(SC(C)C)ncc1Cl | 8.76%
Cc1c(CNC2CCCCC2)c(C(=O)O)c(C)n1Cc1cccc(Cl)c1 | -20%
Cc1c(CCC(=O)NCCc2ccc(Cl)cc2)c(=O)oc2c(C)c(O)ccc12 | -9.23%
CCCCN1C2CCCC1CC(NC(=O)c1cccc(Cl)c1)C2 (stereo not drawn) | active: 30.8%
COc1cccc(C(=O)c2c(N)c(-c3nc(-c4ccccc4)cs3)c3ccccn23)c1 | 8.51%
CCO[C@H]1OC(C(=O)O)=C[C@@H](c2csc3ccccc23)[C@@H]1CCCO | active: 31.6%
O=C(CN1C(=O)COc2ccccc21)NCCc1ccc(Cl)cc1 | -3.35%
CCOc1ccc(N(CC)S(=O)(=O)N2CCCC(C(=O)Nc3ccc(C(C)=O)cc3)C2)cc1 (stereo not drawn) | -9.68%
COc1ccc(N2CCN(CCCNC(=O)c3cc(Nc4ccc(OC)cc4OC)nc4ccccc34)CC2)cc1 | -23.6%
COC(=O)C1=C(C)N(c2ccc(Cl)c(Cl)c2)C(=O)C1 | active: 32.1%
O=C(CCS(=O)(=O)c1ccccc1)N(Cc1cccnc1)c1nc2ccc(Cl)cc2s1 | 6.28%
COc1ccc(-c2noc(N3CCC(C(=O)NCc4ccccc4Cl)CC3)n2)cc1 | active: 47.6%
CCCN1Cc2cccc(C(=O)Nc3ccc(C(C)=O)cc3)c2C1=O | -12.8%
OCCN1CCN(CCOc2cccc(Cl)c2)CC1 | active: 76%
Cc1ccccc1Nc1c(-c2cc(Br)ccc2F)nc2ccccn12 | -5.25%
O=C(CCN1CCN(c2ccccc2)CC1)NNC(=O)Cc1ccccc1Cl | active: 48.2%
CCOC(=O)C1CCC(CN(Cc2ccccc2)S(=O)(=O)c2ccc(Br)cc2)CC1 (stereo not drawn) | -12.2%
Cc1cccc(/C=C(\C#N)c2nc3ccccc3c(=O)[nH]2)c1 | -1.63%
COc1cc(NC(=O)CCS(=O)(=O)c2ccc3c(c2)CC(=O)N3C)cc(OC)c1OC | -0.412%
CSc1cccc(NC(=O)CCCNC(=O)c2ccc(Cl)cc2)c1 | active: 44.6%

SMILES | inhibition
CCOc1ccc(-c2cc(C(=O)Oc3ccc(C#N)cc3)no2)cc1 | 9.83%
COc1ccc(/C=C/c2nc(C#N)c(NCc3ccc(F)cc3)o2)cc1OC | -13.5%
COc1ccccc1NC(=O)c1oc2ccccc2c1NC(=O)c1cccc(OC)c1OC | -5.99%
COc1ccccc1Cn1c(CNS(=O)(=O)c2ccc(C(C)C)cc2)nc2cccnc21 | -7%
CCC(=O)N1CCCc2cc(S(=O)(=O)N3CCC(C(=O)NC4CCCCC4)CC3)ccc21 | 9.25%
O=C(c1ccc2c(c1)N(Cc1ccc(F)cc1)C(=O)c1ccccc1S2(=O)=O)N1CCCC1 | 9.87%
COc1ccc(CNC(=O)c2nc(SCc3ccccc3F)ncc2Cl)cc1 | 13.7%
Fc1ccccc1Cc1cn2cc(-c3ccc(Cl)cc3)nc2s1 | -1.1%
O=C(Cn1c(NCCO)nc2ccccc21)c1ccc([N+](=O)[O-])cc1 | active: 30.1%
Fc1ccc(-c2nn(-c3ccccc3Cl)c3c2cnc2ccccc23)cc1 | 17%
Cc1ccc2onc(CC(=O)N3CCN(c4cc(Cl)ccc4C)CC3)c2c1 | 16.2%
COc1ccc(-n2nc(C(=O)N3CCN(c4cccc(C)c4C)CC3)c3c4ccccc4n(C)c3c2=O)cc1Cl | -10.4%
COc1cccc(CNC(=O)Cn2ncn3nc(-c4cccs4)cc3c2=O)c1OC | 14%
O=C(NCC(c1ccco1)N1CCN(c2ccccc2F)CC1)C1CCCCC1 (stereo not drawn) | active: 59.2%
CCC(Oc1ccccc1)C(=O)Nc1cc(-c2cccc(C)c2)nn1-c1ccccc1 (stereo not drawn) | 7.4%
COc1ccc(-n2c(C)c(C(C)=O)c3cc(OC(=O)COc4ccccc4)ccc32)cc1 | -6.1%
Cc1cc(C)cc(OCC(=O)N(Cc2cccs2)c2ccc(Cl)cc2)c1 | -13.4%
Cc1cc(-c2ccc(C)c(S(=O)(=O)NCc3cccc(Br)c3)c2)on1 | 3.34%
CCOCCCNC(=O)c1cnc2sc(N3CCCCC3)nn2c1=O | 1.1%
CCCCCn1c(CCNC(=O)c2ccc(F)cc2)nc2ccccc21 | -9.78%
COCCCNC(=O)CCc1c(C)nc2nc(-c3cc(OC)cc(OC)c3)nn2c1C | 12.7%
CC(C)N(Cc1ccccc1)S(=O)(=O)c1ccc(-c2cc(C(F)(F)F)on2)s1 | -9.96%
CC(C)OCCCNC(=O)CN1C(=O)COc2ccc(S(=O)(=O)N3CCCCCC3)cc21 | 5.48%
